Laboratory results from PubChem BioAssay AID1671194 (National Center for Advancing Translational Sciences (NCATS), 2021).
The whole screen tested about 140,000 compounds, of which about 240 (0.17%) were called active. Inconclusive means that the source gave no clear call. Such entries were picked first, then a sample of the others. Calls come from the whole dose curve; as a rule, active = well fitted inhibition curve with a large enough effect; inconclusive = small, poorly fitted or top-dose-only effect; inactive = no such curve, though single readings can be large or run the other way. Potencies of inconclusive entries are doubtful fits and often do not repeat.

Assay: Primary qHTS assay for inhibitors of alpha-synuclein gene (SNCA) expression; note: nearly all actives have a fitted effect of over 45% in size;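 for activity change, negative = inhibition: plate controls were DMSO cells for no effect and cell-free wells for full effect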
Details: HEK-293 SNCA-luciferase knock-in, luminescence, 24 h; activity change, negative = inhibition: at 57.2 µM (top of the series) unless noted
Potency is the fitted concentration of half-maximal effect; tags give direction and shape of the fitted curve.

Row | Structure (SMILES) | Potency | activity change, negative = inhibition
1 | CC(C)(C)c1ccc(-c2cc(C[C@H]3CNCC[C@H]3CC(=O)N3CCCCC3)no2)cc1 | inconclusive: 56.2 µM [inhibitor, single point] | 
2 | O=C(c1c[nH]c2ncccc12)N1CCOCC1 | inconclusive: 89.1 µM [inhibitor, single point] | 
3 | CN(C)c1ccc(C(=O)N2CCN3C(=O)c4cc(-c5ccc6c(c5)OCO6)ccc4NC(=O)[C@H]3C2)cc1 | inconclusive: 39.8 µM [inhibitor, single point] | 
4 | CCCN(C(=O)c1cc2c(Cl)nc3ccccc3c2s1)c1cccc(C)c1 | inconclusive: 2 µM [inhibitor, full curve, poor fit] | 
5 | Cc1ccc(C(=O)N2CC[C@H](N3CCOCC3)[C@H](CCCO)C2)cc1Cl | inconclusive: 8.91 µM [inhibitor, single point] | 
6 | CC(C)[C@@H]1CN(S(=O)(=O)c2cccc(C#N)c2)C[C@H]1NS(C)(=O)=O |  | inactive: -1.82%
7 | COc1ccccc1CN1CC[C@@](C)(O)[C@H](N2CCCC2)C1 |  | inactive: 0.0429%
8 | CC(=O)N1CCC(NC[C@H]2O[C@@H]3C[C@@H](CC(=O)NC(C)C)O[C@@H]3[C@@H]2O)CC1 | inconclusive: 4.47 µM [inhibitor, full curve, poor fit] | 
9 | O=C(CCCn1cncn1)N1CCCC(CCc2ccccc2C(F)(F)F)C1 (centres undefined) | inconclusive: 22.4 µM [inhibitor, partial curve, poor fit] | 
10 | Cc1nn(C)c(C)c1CCC(=O)N[C@@H]1CN(Cc2ccccc2)C[C@H]1CN(C)C |  | inactive: 9.12%
11 | COc1ccccc1C(=O)N1CCC(C(NC(=O)c2ccc(C)cc2)C(=O)N2CCCCC2)CC1 (centres undefined) | inconclusive: 0.708 µM [inhibitor, partial curve, poor fit] | 
12 | O=C(NCC1CCN(c2cc(-c3ccccc3)[nH]n2)CC1)c1ccc2nc[nH]c2c1 |  | inactive: -23.3%
13 | O=C1NCc2ccccc2CC12CCCN2Cc1ccnc2ccccc12 (centres undefined) | inconclusive: 5.01 µM [inhibitor, full curve, poor fit] | 
14 | O=C(COc1ccc(F)cc1)N1CC(Oc2cccc(-c3nc(-c4ccccc4)no3)c2)C1 | inconclusive: 3.55 µM [inhibitor, full curve] | 
15 | Cc1cc(C)cc(-c2ccc(CN3CCCC(N[S+](=O)([O-])c4ccccc4)C3)cc2)c1 (centres undefined) |  | inactive: -9.99%
16 | COc1ccc(-c2noc(CC3CCN(C(=O)c4cc(Cl)ccc4OC)CC3)n2)cc1 | inconclusive: 12.6 µM [inhibitor, partial curve, poor fit] | 
17 | COc1cc(Cl)c(C)cc1NC(=O)c1cn(CC(C)C)c(=O)c2cc(OC)c(OC)cc12 | inconclusive: 39.8 µM [inhibitor, single point] | 
18 | O=C(C1CCc2nnc(-c3ccc(Cl)cc3Cl)n21)N1CCOCC1 (centres undefined) | inconclusive: 39.8 µM [inhibitor, single point] | 
19 | Cc1cc(Nc2cccc(Cl)c2C)n2nc(Cc3ccccc3)nc2n1 |  | inactive: 22.4%
20 | COc1ccc(C(=O)NCc2nnnn2-c2ccc(C)c(C)c2)cc1 | inconclusive: 39.8 µM [inhibitor, single point] | 
21 | CCN1c2cc(C(=O)NCc3ccccc3Br)ccc2C(=O)N2CCCCC21 (centres undefined) | inconclusive: 39.8 µM [inhibitor, partial curve, poor fit] | 
22 | CCCCc1cc(C[C@H]2CNCC[C@H]2CC(=O)NCc2ccc(F)cc2)no1 |  | inactive: -11% [at 87.6 µM]

Row | Structure (SMILES) | Potency | activity change, negative = inhibition
23 | CN(C)c1ccc(C(=O)N[C@H]2C[C@H]3C(=O)NC[C@@H](CCC(=O)N4CCCCC4)N3C2)cc1 | inconclusive: 3.55 µM [inhibitor, single point] | 
24 | COc1cccc(N2C(=O)NC(=NC3CCCCC3)C23CCN([S+](=O)([O-])c2cccc(OC)c2)C3)c1 (centres undefined) | inconclusive: 5.62 µM [inhibitor, single point] | 
25 | Cc1cccc(C)c1-c1nc(C(=O)NCc2cccnc2)n2ccccc12 |  | inactive: 15.3%
26 | Cc1ccnc(NC(c2ccccc2F)c2ccc3cccnc3c2O)c1 (centres undefined) | inconclusive: 11.2 µM [inhibitor, partial curve, poor fit] | 
27 | CCOC(=O)c1cc(-c2ccccc2)n(-c2cccc(C(=O)Nc3ccc(F)c(F)c3)c2)c1C | inconclusive: 17.8 µM [inhibitor, partial curve, poor fit] | 
28 | Cc1cc(C(=O)N2CCC3(CC2)c2[nH]c4ccccc4c2CCN3C)n(C)n1 |  | inactive: 1.63%
29 | Cc1ccc(-c2ncc(C(=O)NCCN(C)C3CCCCC3)c(-c3ccncc3)n2)cc1 |  | inactive: -13.8%
30 | Cn1c(C(=O)NCCN2CCOCC2)nc2nc(-c3ccccc3)c(Cl)cc21 |  | inactive: 29.5% [at 87.6 µM]
31 | Cc1ccc(-n2ncc(C(=O)N3CCN(c4cccc(C)c4)C(C)C3)c2C2CCN(C(=O)OC(C)(C)C)CC2)cc1 (centres undefined) | inconclusive: 22.4 µM [inhibitor, single point] | 
32 | COc1ccccc1-c1nc(NCc2ccccc2)c2ccccc2n1 | inconclusive: 22.4 µM [inhibitor, partial curve, poor fit] | 
33 | O=C(NC1CCCCCCC1)c1ccc(Cn2ccn3nc4c(c3c2=O)CCCC4)cc1 | inconclusive: 14.1 µM [inhibitor, partial curve, poor fit] | 
34 | Cc1ccc(CN2CCC3(CC2)Cc2ccccc2NC3=O)cc1 | inconclusive: 35.5 µM [inhibitor, single point] | 
35 | Cc1cc(NC(=O)Cn2ccn3nc(-c4ccc(F)cc4)c(CO)c3c2=O)n[nH]1 |  | inactive: 19%
36 | Cc1cc2c(cc1S(=O)(=O)NCc1ccccc1Cl)OCCN2C | inconclusive: 39.8 µM [inhibitor, single point] | 
37 | Cc1ccc(O)c(C(CC(=O)NCC2(c3ccccc3)CCCC2)c2ccccc2)c1 (centres undefined) | inconclusive: 35.5 µM [inhibitor, single point] | 
38 | CC(C)c1nncn1C1CCN(S(=O)(=O)c2cccc(F)c2)CC1 |  | inactive: -23.3%
39 | CCOc1ccccc1NC(=O)CN1C=C(C(=O)OC)C(C)=NS1(=O)=O | inconclusive: 39.8 µM [inhibitor, single point] | 
40 | CC(=O)N1CCOc2cc(S(=O)(=O)Nc3cccc(C(F)(F)F)c3)c(Cl)cc21 | inconclusive: 20 µM [inhibitor, partial curve, poor fit] | 
41 | COc1ccc(OC)c(NC(=O)Cc2coc3ccc(C(C)C)cc23)c1 | inconclusive: 39.8 µM [inhibitor, single point] | 
42 | Cn1nc2n(c1=O)CCC(NC(=O)c1n[nH]c3c1CC(C(C)(C)C)CC3)CC2 (centres undefined) | inconclusive: 8.91 µM [inhibitor, single point] | 
43 | Cc1cc(S(=O)(=O)N2CCC3(CCC(=O)N(Cc4ccccc4)CC3)CC2)ccc1F |  | inactive: -26.9%
44 | CCc1ccc(NC(=O)c2ccc3c(c2)N(C)C2CCCCCN2C3=O)cc1 (centres undefined) | inconclusive: 17.8 µM [inhibitor, partial curve] | 

Row | Structure (SMILES) | Potency | activity change, negative = inhibition
45 | CC(=O)c1ccc(NC(=O)N[C@H]2CO[C@H]3[C@@H]2OC[C@@H]3n2nnnc2Oc2cccc(N(C)C)c2)cc1 |  | inactive: 27.7%
46 | CCOC(=O)C1CCN(C(=O)Cc2cccn2-c2ccc(F)cc2)CC1 | inconclusive: 0.708 µM [inhibitor, full curve, poor fit] | 
47 | O=C(Nc1cccc(-c2nnc3n2CCCC3)c1)c1ccccc1Cl | inconclusive: 3.16 µM [inhibitor, single point] | 
48 | CC(=O)Nc1ccc(C(=O)CSc2nnc(-c3ccccc3)n2-c2ccccc2)cc1 | inconclusive: 3.98 µM [inhibitor, full curve, poor fit] | 
49 | CCc1c(C)sc2c1CCN(Cc1cccc(F)c1)C2c1ccccc1 (centres undefined) | inconclusive: 15.8 µM [inhibitor, single point] | 
50 | O=S(=O)(c1ccccc1F)N1CCC(OCc2noc(C3CCCO3)n2)CC1 (centres undefined) | inconclusive: 4.47 µM [inhibitor, partial curve, poor fit] | 
51 | O=C(C1CCc2nnc(-c3cccc(C(F)(F)F)c3)n21)N1CCCCC1 (centres undefined) | inconclusive: 39.8 µM [inhibitor, single point] | 
52 | CCn1ncc(N2CCCC(CC(=O)N3CCN(c4cccc(Cl)c4)CC3)C2)cc1=O (centres undefined) | inconclusive: 39.8 µM [inhibitor, single point] | 
53 | O=S(=O)(c1ccc(-n2cccn2)cc1)N1CCCC2(CCNC2)C1 (centres undefined) |  | inactive: 8.27%
54 | Cc1cccc(-c2cccc(NC(=O)C3CCCN(C(=O)c4cccc(C)n4)C3)c2)c1 (centres undefined) |  | inactive: 84%
55 | CCOC(=O)N1CCN(Cc2cccc(OCC(O)CN3CCOCC3)c2)CC1 (centres undefined) |  | inactive: -3.43%
56 | CNC(C)c1ccccc1OC (centres undefined) |  | inactive: -12.3% [at 87.6 µM]
57 | Cc1cccc(CNc2nc(-c3ccccc3CN(C)C)nc3ccccc23)c1 | inconclusive: 8.91 µM [inhibitor, partial curve, poor fit] | 
58 | NCCCN1C(=O)CC[C@H]2CN(C(=O)CN3CCNC(=O)C3)CC[C@H]21 | inconclusive: 8.91 µM [inhibitor, partial curve, poor fit] | 
59 | CC(C)NC(=O)C1COC2(CCN(C(=O)c3cccc([N+](=O)[O-])c3)CC2)N1C(=O)c1ccccc1 (centres undefined) |  | inactive: 4.19%
60 | CCOc1ccc(C2CC(=O)n3nc(-c4ccc(C)cc4)nc3S2)cc1OC (centres undefined) | inconclusive: 3.16 µM [inhibitor, partial curve, poor fit] | 
61 | CC(C(=O)Nc1cccc(C#N)c1)n1nc(-c2ccccc2)c2c(c1=O)CCCC2 (centres undefined) | inconclusive: 17.8 µM [inhibitor, single point] | 
62 | Cc1cn2nc(C(=O)NCc3ccc4c(c3)OCO4)cc2c(N2CCCC2)n1 |  | inactive: -25%
63 | Cc1noc(-c2ccn3c(CNC(=O)Cc4cccc(F)c4)nnc3c2)n1 |  | inactive: 27%
64 | COCc1c(C(=O)N[C@@H]2CN(c3ncccn3)C[C@H]2CN(C)C)noc1C |  | inactive: 5.38%
